Source: the supplement of paper PMC10320760
The data scatter; read single values as rough.

B1: Ydj1; a variant is named by its letters at X, in order (parent)
chain: MVKETKFYDILGVPVTATDVEIKKAYRKCALKYHPDKNPSEEAAEKFKEASAAYEILSDPEKRDIYDQFGEDGLSGAGGAGGFPGGGFGFGDDIFSQFFGAGGAQRPRGPQRGKDIKHEISASLEELYKGRTAKLALNKQILCKECEGRGGKKGAVKKCTSCNGQGIKFVTRQMGPMIQRFQTECDVCHGTGDIIDPKDRCKSCNGKKVENERKILEVHVEPGMKDGQRIVFKGEADQAPDVIPGDVVFIVSERPHKSFKRDGDDLVYEAEIDLLTAIAGGEFALEHVSGDWLKVGIVPGEVIAPGMRKVIEGKGMPIPKYGGYGNLIIKFTIKFPENHFTSEENLKKLEEILPPRIVPAIPKKATVDECVLADFDPAKYNRTRASRGGANYDSDEEEQGGEGVQCXXX

Variants of: B1
Assay: enrichment factor, frequency at 37 °C / frequency at 25 °C (thermotolerance selection) (ratio); higher = more growth at 37 °C, higher likelihood of farnesylation
Conditions: with Saccharomyces cerevisiae ydj1Δ (yWS304); selective temperature 37 °C; reference temperature 25 °C

| Variant | enrichment factor |
| --- | --- |
| RRP | 0.0623 |
| SRP | 0.185 |
| TRP | 0.127 |
| CRP | 0.172 |
| VRP | 0.0956 |
| WRP | 1.47 |
| YRP | 0.252 |
| DRQ | 0.112 |
| ERQ | 0.716 |
| FRQ | 1.94 |
| GRQ | 0.388 |
| HRQ | 1.12 |
| ARQ | 0.458 |
| IRQ | 0.128 |
| KRQ | 0.104 |
| LRQ | 0.195 |
| MRQ | 0.228 |
| NRQ | 0.173 |
| PRQ | 0.164 |
| QRQ | 0.715 |
| RRQ | 0.129 |
| SRQ | 0.149 |
| TRQ | 0.13 |
| CRQ | 0.358 |

| Variant | enrichment factor |
| --- | --- |
| VRQ | 0.251 |
| WRQ | 1.62 |
| YRQ | 0.706 |
| DRR | 0.13 |
| ERR | 0.159 |
| FRR | 0.0914 |
| GRR | 0.14 |
| HRR | 0.0819 |
| ARR | 0.113 |
| IRR | 0.17 |
| KRR | 0.186 |
| LRR | 0.178 |
| MRR | 0.172 |
| NRR | 0.104 |
| PRR | 0.141 |
| QRR | 0.144 |
| RRR | 0.157 |
| SRR | 0.146 |
| TRR | 0.174 |
| CRR | 0.171 |
| VRR | 0.158 |
| WRR | 0.113 |
| YRR | 0.095 |
| DRS | 0.134 |

| Variant | enrichment factor |
| --- | --- |
| ERS | 0.188 |
| FRS | 1.25 |
| GRS | 0.159 |
| HRS | 0.1 |
| ARS | 0.142 |
| IRS | 0.115 |
| KRS | 0.0863 |
| LRS | 0.138 |
| MRS | 0.198 |
| NRS | 0.27 |
| PRS | 0.145 |
| QRS | 0.123 |
| RRS | 0.183 |
| SRS | 0.152 |
| TRS | 0.188 |
| CRS | 0.134 |
| VRS | 0.155 |
| WRS | 1.27 |
| YRS | 0.225 |
| DRT | 0.175 |
| ERT | 0.0736 |
| FRT | 1.29 |
| GRT | 0.236 |
| HRT | 0.661 |

| Variant | enrichment factor |
| --- | --- |
| ART | 0.212 |
| IRT | 0.106 |
| KRT | 0.209 |
| LRT | 0.13 |
| MRT | 0.16 |
| NRT | 0.23 |
| PRT | 0.15 |
| QRT | 0.172 |
| RRT | 0.154 |
| SRT | 0.214 |
| TRT | 0.0989 |
| CRT | 0.133 |
| VRT | 0.168 |
| WRT | 1.45 |
| YRT | 0.978 |
| DRV | 0.137 |
| ERV | 0.162 |
| FRV | 1.55 |
| GRV | 0.0877 |
| HRV | 0.731 |
| ARV | 0.238 |
| IRV | 0.159 |
| KRV | 0.159 |
| LRV | 0.137 |

| Variant | enrichment factor |
| --- | --- |
| MRV | 0.194 |
| NRV | 0.157 |
| PRV | 0.0742 |
| QRV | 0.188 |
| RRV | 0.196 |
| SRV | 0.133 |
| TRV | 0.167 |
| CRV | 0.486 |
| VRV | 0.154 |
| WRV | 1.32 |
| YRV | 0.959 |
| DRW | 0.117 |
| ERW | 0.192 |
| FRW | 0.328 |
| GRW | 0.149 |
| HRW | 0.0969 |
| ARW | 0.25 |
| IRW | 0.164 |
| KRW | 0.18 |
| LRW | 0.149 |
| MRW | 0.105 |
| NRW | 0.134 |
| PRW | 0.108 |
| QRW | 0.167 |

| Variant | enrichment factor |
| --- | --- |
| RRW | 0.117 |
| SRW | 0.129 |
| TRW | 0.114 |
| CRW | 0.183 |
| VRW | 0.0919 |
| WRW | 1.29 |
| YRW | 0.261 |
| DRY | 0.164 |
| ERY | 0.105 |
| FRY | 0.513 |
| GRY | 0.155 |
| HRY | 0.12 |
| ARY | 0.272 |
| IRY | 0.13 |
| KRY | 0.0738 |
| LRY | 0.101 |
| MRY | 0.164 |
| NRY | 0.17 |
| PRY | 0.143 |
| QRY | 0.152 |
| RRY | 0.198 |
| SRY | 0.216 |
| TRY | 0.139 |
| CRY | 0.194 |

| Variant | enrichment factor |
| --- | --- |
| VRY | 0.17 |
| WRY | 1.52 |
| YRY | 0.167 |
| DSA | 0.152 |
| ESA | 1.11 |
| FSA | 1.55 |
| GSA | 0.646 |
| HSA | 2.09 |
| ASA | 1.34 |
| ISA | 1.55 |
| KSA | 1.47 |
| LSA | 1.52 |
| MSA | 1.58 |
| NSA | 1.45 |
| PSA | 1.82 |
| QSA | 1.8 |
| RSA | 1.41 |
| SSA | 1.69 |
| TSA | 1.63 |
| CSA | 1.29 |
| VSA | 2.24 |
| WSA | 1.49 |
| YSA | 2.21 |
| DSC | 0.354 |

| Variant | enrichment factor |
| --- | --- |
| ESC | 1.78 |
| FSC | 0.358 |
| GSC | 1.19 |
| HSC | 2.38 |
| ASC | 0.832 |
| ISC | 1.09 |
| KSC | 1.54 |
| LSC | 0.112 |
| MSC | 0.668 |
| NSC | 1.72 |
| PSC | 2.12 |
| QSC | 2.04 |
| RSC | 0.649 |
| SSC | 1.04 |
| TSC | 0.879 |
| CSC | 0.326 |
| VSC | 2.35 |
| WSC | 0.151 |
| YSC | 3.47 |
| DSD | 0.191 |
| ESD | 0.207 |
| FSD | 0.208 |
| GSD | 0.117 |
| HSD | 0.247 |

| Variant | enrichment factor |
| --- | --- |
| ASD | 0.304 |
| ISD | 0.584 |
| KSD | 0.807 |
| LSD | 0.381 |
| MSD | 0.171 |
| NSD | 0.211 |
| PSD | 0.203 |
| QSD | 0.176 |
| RSD | 1.04 |
| SSD | 0.183 |
| TSD | 0.325 |
| CSD | 0.255 |
| VSD | 0.881 |
| WSD | 0.333 |
| YSD | 0.265 |
| DSE | 0.115 |
| ESE | 0.0947 |
| FSE | 0.155 |
| GSE | 0.306 |
| HSE | 0.203 |
| ASE | 0.326 |
| ISE | 0.717 |
| KSE | 0.163 |
| LSE | 0.551 |

| Variant | enrichment factor |
| --- | --- |
| MSE | 0.132 |
| NSE | 0.168 |
| PSE | 0.203 |
| QSE | 0.172 |
| RSE | 0.302 |
| SSE | 0.127 |
| TSE | 0.195 |
| CSE | 0.531 |
| VSE | 1.25 |
| WSE | 1.62 |
| YSE | 0.131 |
| DSF | 1.29 |
| ESF | 1.42 |
| FSF | 1.46 |
| GSF | 2.12 |
| HSF | 2.13 |
| ASF | 2.1 |
| ISF | 1.45 |
| KSF | 1.66 |
| LSF | 2.17 |
| MSF | 0.856 |
| NSF | 1.93 |
| PSF | 1.21 |
| QSF | 2.48 |

| Variant | enrichment factor |
| --- | --- |
| RSF | 3.31 |
| SSF | 1.57 |
| TSF | 2.16 |
| CSF | 0.604 |
| VSF | 4.63 |
| WSF | 0.742 |
| YSF | 2.7 |
| DSG | 0.143 |
| ESG | 0.467 |
| FSG | 1.13 |
| GSG | 0.124 |
| HSG | 0.727 |
| ASG | 1.24 |
| ISG | 1.13 |
| KSG | 0.462 |
| LSG | 1.57 |
| MSG | 1.51 |
| NSG | 0.928 |
| PSG | 1.02 |
| QSG | 0.991 |
| RSG | 1.12 |
| SSG | 1.39 |
| TSG | 1.2 |
| CSG | 1.54 |

| Variant | enrichment factor |
| --- | --- |
| VSG | 1.4 |
| WSG | 1.15 |
| YSG | 0.988 |
| DSH | 0.988 |
| ESH | 1.32 |
| FSH | 2.09 |
| GSH | 1.96 |
| HSH | 1.93 |
| ASH | 2.11 |
| ISH | 1.77 |
| KSH | 1.38 |
| LSH | 1.58 |
| MSH | 1.63 |
| NSH | 2.26 |
| PSH | 1.76 |
| QSH | 1.74 |
| RSH | 1.94 |
| SSH | 1.64 |
| TSH | 2.34 |
| CSH | 0.908 |
| VSH | 2.11 |
| WSH | 1.57 |
| YSH | 3.34 |
| DSI | 0.137 |

| Variant | enrichment factor |
| --- | --- |
| ESI | 1.5 |
| FSI | 1.81 |
| GSI | 0.535 |
| HSI | 1.43 |
| ASI | 1.62 |
| ISI | 1.79 |
| KSI | 1.08 |
| LSI | 1.28 |
| MSI | 1.61 |
| NSI | 2.78 |
| PSI | 1.71 |
| QSI | 1.82 |
| RSI | 1.51 |
| SSI | 2.02 |
| TSI | 1.47 |
| CSI | 0.705 |
| VSI | 2.01 |
| WSI | 2.06 |
| YSI | 1.07 |
| DSK | 0.189 |
| ESK | 0.113 |
| FSK | 0.0822 |
| GSK | 0.223 |
| HSK | 0.228 |

| Variant | enrichment factor |
| --- | --- |
| ASK | 0.106 |
| ISK | 0.175 |
| KSK | 0.195 |
| LSK | 0.134 |
| MSK | 0.207 |
| NSK | 0.118 |
| PSK | 0.137 |
| QSK | 0.15 |
| RSK | 0.146 |
| SSK | 0.0613 |
| TSK | 0.233 |
| CSK | 0.193 |
| VSK | 0.4 |
| WSK | 0.489 |
| YSK | 0.0998 |
| DSL | 0.191 |
| ESL | 1.43 |
| FSL | 1.17 |
| GSL | 0.213 |
| HSL | 0.54 |
| ASL | 1.77 |
| ISL | 1.28 |
